Results on 172 sequences are retold here after article PMC6212790.

This is one part of the list. At the low end of the ranking the order means little.

For this experiment, the target named is T1, GST-Rok-C97-191 (UniProt O34857).
T1 sequence: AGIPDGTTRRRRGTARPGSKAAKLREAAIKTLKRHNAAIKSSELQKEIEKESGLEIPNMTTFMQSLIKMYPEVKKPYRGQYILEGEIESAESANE
As to the kind of experiment: protein binding microarray.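 Note: rank score from −0.5 (least bound) to 0.5 (best bound).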 The following applies: Rok is a gene silencer of Bacillus subtilis; high values mean tight binding; most listed sequences are background and not binding sites; double strand, one strand shown.
Turning to ACGGTCAA, the binding signal worked out at 0.0621 E-score.
The value for GCTACCTA was 0.271 E-score; that for AGGTTGTC was -0.00169 E-score; that for CTGCGATC was -0.063 E-score.
The value for GGCGGGAA was -0.104 E-score.
The value for AAATTCTG was 0.207 E-score.
Consider CTCCCTTC, for which the binding signal is -0.27 E-score.
The same measure for CAAGTCAG: -0.15 E-score; for ATATCGCC: 0.0442 E-score.
The value for CTGTATGA was 0.0512 E-score.
The value for GCGCTGGA was 0.00918 E-score; that for GACATTCA was -0.0126 E-score.
In turn, GTCGTAAC showed a binding signal of 0.0491 E-score.
The same measure for AGTCGGGA: -0.156 E-score.
On to CAGCCCTG, for which the binding signal is -0.157 E-score.
With ATTGAGTC, the binding signal was determined as 0.139 E-score.
Take AACATAGC: the binding signal is 0.0664 E-score.
The same measure for GAAAGTAA: 0.226 E-score; for AGCGTAGG: 0.0326 E-score.
As to CGACACGA, the binding signal was -0.071 E-score.
The same measure for GCTTAATA: 0.186 E-score; for CGGACGTA: 0.162 E-score.
The same measure for CGTTCATC: -0.181 E-score; for CGACCGGA: -0.00838 E-score; for CCGATGTA: 0.171 E-score.
The same measure for GAACGTGC: -0.194 E-score; for CTGCTCTA: 0.0496 E-score.
Regarding CCATGGGA, the binding signal was -0.277 E-score.
The same measure for CATTATGA: 0.0691 E-score.
The same measure for GAACTTGC: 0.0584 E-score; for AAGCTGCG: -0.00431 E-score; for GAATAAAA: 0.119 E-score.
The same measure for CGCCCGAG: -0.165 E-score; for ACACCACG: -0.0773 E-score; for GCTAGCCC: -0.205 E-score.
The sequence CCATGTGA registered a binding signal of -0.0549 E-score.
Take GAGGGTCC: the binding signal was -0.237 E-score.
The value for AAACTAAC was 0.308 E-score; that for ATGACAGG was -0.15 E-score; that for ATCCGTAG was -0.123 E-score.
The value for AAGGCGTC was -0.219 E-score; that for AGTAGGTA was 0.4 E-score.
The same measure for ACTCGTCA: -0.0101 E-score; for CAGACGAC: -0.0565 E-score; for AGTCAAGC: 0.0524 E-score.
With ATGTTGTG, the binding signal was -0.0523 E-score.
The value for GCATTGAC was -0.152 E-score; that for TAAAAGGA was -0.0824 E-score.
The same measure for GGCCCAGA: -0.103 E-score; for GTACTAAC: 0.145 E-score; for TAGATAAA: 0.292 E-score.
The same measure for CATGGTGG: -0.336 E-score; for AAAGTAGT: 0.328 E-score; for CCGGCGCC: -0.268 E-score.
GTTTGGTA: the binding signal is 0.278 E-score.
The value for ACTCGTAG was 0.244 E-score.
The sequence CTATAAGC returned a binding signal of 0.149 E-score.
For GCGGATTA, the binding signal was -0.00735 E-score.
The same measure for ACGGCACT: -0.0261 E-score; for ATCTCATA: 0.16 E-score.
The same measure for ATGAAGAA: 0.0442 E-score; for GGTGTCGA: -0.13 E-score.
The value for GAATCAGC was -0.0888 E-score; that for CGGCCCCA was -0.242 E-score.
AAACGCAA: the binding signal worked out at 0.0403 E-score.
The same measure for AAGTTCTA: 0.223 E-score; for CCAGGGTC: -0.226 E-score.
The value for CCCAAGGA was -0.259 E-score; that for AAAGCCCT was -0.169 E-score.
Take GTGAAAGA: the binding signal was 0.0757 E-score.
The same measure for AGGAGGGA: -0.173 E-score.
The same measure for TCCGATAA: 0.061 E-score; for GGACCCTA: -0.149 E-score; for TCGAAACA: -0.0654 E-score.
The same measure for ACCGTCTG: 0.0881 E-score; for CTAGGGCC: -0.179 E-score; for CACACGCC: -0.0594 E-score.
On to TAATATGA, for which the binding signal is 0.241 E-score.
The same measure for ATTATTAC: 0.387 E-score.
The same measure for AGCTCTGA: -0.234 E-score.
The value for CCGCATTA was 0.0357 E-score.
Sequence AGAAATTG returned a binding signal of 0.139 E-score.
The same measure for CGTAGACA: -0.179 E-score.
The same measure for AGCCGACG: -0.123 E-score; for AGCACGTA: -0.011 E-score; for AGACTTGG: -0.0428 E-score.
The value for CTAGTCAG was -0.0101 E-score; that for GGGACTTA was 0.116 E-score; that for TATTGGCA was 0.0968 E-score.
Turning to CTTCACAA, the binding signal came to 0.0794 E-score.
The value for CAAGAGCG was -0.277 E-score.
The same measure for AACTGTGA: 0.226 E-score; for CCCTCGGA: -0.173 E-score; for GGGGCAGA: -0.413 E-score.
The value for CCGTGCTA was -0.0821 E-score; that for ACGCCAGT was -0.157 E-score.
Turning to CAGTCGAC, the binding signal is -0.196 E-score.
The value for AGTCCTCA was -0.05 E-score; that for GGACACAA was -0.187 E-score.
The value for ACCGAACC was -0.168 E-score; that for TCCGCGCA was -0.244 E-score.
The same measure for GAATTATA: 0.24 E-score; for CCACCGAG: -0.116 E-score; for AACCTAGG: 0.0344 E-score.
The sequence ACGGGAAC showed a binding signal of -0.165 E-score.
The same measure for GAAGGTCC: -0.275 E-score; for ATAAAGAA: -0.0542 E-score; for ACAGCTTA: -0.0692 E-score.
Take GCTTGAAC: the binding signal is -0.0848 E-score.
Regarding GCCTAGCC, the binding signal was -0.224 E-score.
In the case of CGCCACAA, the binding signal was -0.173 E-score.
CATGTGCC registered a binding signal of -0.0705 E-score.
Turning to CACCGGTG, the binding signal is -0.236 E-score.
The same measure for GAGGGATA: 0.098 E-score.
The value for ATCCCAGG was 0.00674 E-score; that for GATTCTCC was 0.133 E-score; that for ACTCTAAA was -0.0436 E-score.
The same measure for ATTAGCCC: -0.092 E-score; for GTCAAAAC: -0.0712 E-score.
In turn, CGTGTTAG gave a binding signal of -0.0851 E-score.
The same measure for ACCGGTTC: -0.187 E-score; for AATTCGGG: 0.0614 E-score; for AGGTGGTC: -0.297 E-score.
For the sequence CCCCGACC, the binding signal is -0.359 E-score.
GGACATCA returned a binding signal of -0.269 E-score.
The value for AATTTGAG was -0.0738 E-score; that for CGTCCTGC was -0.233 E-score; that for CCACATTA was 0.153 E-score.
The value for GCAGCCCC was -0.358 E-score; that for GCCGATAA was -0.00219 E-score.
For ACACCGCC, the binding signal was -0.226 E-score.
The value for GTATCGTA was 0.268 E-score; that for GCAGGATA was -0.0502 E-score; that for CCAAGGAA was -0.261 E-score.
CAGGTATG had a binding signal of 0.245 E-score.
For ACCCGATA, the binding signal was 0.234 E-score.
The value for AGGTCGAC was 0.159 E-score; that for CGCGGTAA was -0.116 E-score; that for ATCCGGGC was -0.21 E-score.
The value for AATGACCA was -0.0283 E-score; that for ACATTCGC was 0.0672 E-score.
The same measure for AACAGCTC: 0.087 E-score; for CGAGACAC: -0.109 E-score; for CGGTGCCC: -0.343 E-score.
GTATTAGA came in with a binding signal of 0.171 E-score.
The same measure for ATCTGGCG: -0.263 E-score.
The sequence CGGGCGAG gave a binding signal of -0.181 E-score.
The same measure for CGCAAGAA: 0.0789 E-score.
For GGCCCTAC, the binding signal was -0.257 E-score.
The value for CTAATCCC was 0.0176 E-score; that for CCGCATGC was -0.158 E-score.
ACTCTTAT yielded a binding signal of -0.0684 E-score.
The same measure for ACTAAAGC: 0.0152 E-score; for CAGATATG: 0.0709 E-score; for CCCTAACC: -0.374 E-score.
The value for GGACTGGA was -0.0768 E-score; that for AGCGAGCC was -0.0824 E-score; that for CGGAATAG was 0.174 E-score.
The same measure for CTGCCACC: -0.301 E-score; for TGCAAAAA: 0.087 E-score.
For ACGGACAG, the binding signal is -0.198 E-score.
The same measure for GACGGGCA: -0.132 E-score.
CCACTCCA came in with a binding signal of -0.233 E-score.
The value for ATTAGCTC was 0.228 E-score; that for CCTGGGCG was -0.328 E-score.
The value for ACCGGTTG was -0.0424 E-score; that for TGCAACCA was 0.021 E-score.
The value for AGAGAGCC was -0.129 E-score; that for GCTCCCTA was -0.23 E-score.
AGAGGCAA gave a binding signal of -0.195 E-score.
The sequence CAACGGAG had a binding signal of -0.219 E-score.
TGATATAA came in with a binding signal of 0.309 E-score.
